The text below walks through data of PubChem BioAssay AID463173 (ICCB-Longwood Screening Facility, Harvard Medical School, 2010).

SMILES strings stand for the structures. Screen size: about 52,000 compounds; about 4,300 (8.3%) were called active. No stated cut-off is given here; in the data, active means survival mostly below about 52% (no sharp cut-off); inactive means mostly above about 56%. Some of the results follow.

The assay has as its system DeltatarO mutant. Put plainly: S. aureus survival, RN4220 and DeltatarO strains – OD600, teichoic acid synthesis inhibitors, primary screen (AID 463173). Particulars: S. aureus RN4220 wild type/DeltatarO growth, OD600, 18 h, stronger effect = lower value, screened at 18.75 µg/mL (by protocol).
As to `Cc1cc(C)cc(NC(=O)c2oc3ccc4c(c3c2C)C(=O)CC(C)(C)O4)c1`, the survival is inactive: 89%.

With `COc1ccc2c(c1)c1c(c(=O)n(Cc3ccccc3)c(=O)n1CC(=O)NCc1ccc(C)cc1)n2C`, the survival was inactive: 84%.

As to `Cc1ccc(C)c(N2CCN(C(=O)c3ccc(Nc4nc5ccccc5n5nnnc45)cc3)CC2)c1`, the survival was inactive: 82%.

With `COc1ccc(N2CCN(C(=O)CCC(=O)NNc3nc4ccccc4c4nc(C)nn34)CC2)cc1`, the survival is inactive: 97%.

Consider `O=C(NCCc1csc(-c2cccc(F)c2)n1)c1ccccc1C(F)(F)F`, for which the survival is inactive: 94%.

On to `CCN(C(=O)CN1C(=O)COc2ccc(S(=O)(=O)N3CCOCC3)cc21)c1cccc(C)c1`, for which the survival is inactive: 96%.

`O=C(c1cn(-c2ccccc2)nc1-c1cccnc1)N1CCCCC1`: the survival was inactive: 84%.

Consider `Cn1c(SCC(N)=O)nnc1-c1ccc(S(=O)(=O)N2CCCC2)cc1`, for which the survival was inactive: 79%.

`CCc1nn(-c2ccccc2)c2nc(-c3ccc(O)cc3)c3cc(OC)c(OC)cc3c12`: the survival is inactive: 74%.

On to `CCCc1cnc2c(c1SCC(=O)Nc1c(C)cc(C)cc1C)c(=O)n(C)c(=O)n2C`, for which the survival is inactive: 94%.

For the compound `COC(=O)c1ccc(NC(=O)Cn2c(-c3nonc3N)nc3ccccc32)cc1`, the survival is inactive: 134%.

With `Cc1cccc(-c2nc(CN3CCCC(C(=O)NCc4ccc(Cl)cc4)C3)c(C)o2)c1` (centres undefined), the survival is active: 18%.

For `Cc1nn(CC(=O)N2CCC(C)CC2)c(=O)c2cc3occc3n12`, the survival was inactive: 97%.

For `O=C(NCC1CCCO1)c1ccc(S(=O)(=O)N2CCCCC2)cc1` (centres undefined), the survival was inactive: 66%.

Turning to `c1cncc(-c2noc(C3CCCCC3)n2)c1`, the survival is inactive: 61%.

For `CCOC(=O)N1CCC2(CC1)OC(=O)C(C)=C2C(=O)NCc1ccc(C)cc1`, the survival is inactive: 70%.

Turning to `CCNC(=O)c1ccc(CSc2nc3cccnc3n2Cc2ccc(OC)cc2)cc1`, the survival is active: 0%.

For the compound `Clc1ccccc1CNC12CN3CN(CN(C3)C1)C2`, the survival was inactive: 72%.

Turning to `CCC1CCc2nc3sc(C(=O)Nc4ccc(C)cc4C)c(N)c3cc2C1` (centres undefined), the survival is inactive: 62%.

As for `COC(=O)Cn1ccc2cc(S(=O)(=O)N3CCCCCC3)ccc21`, the survival was inactive: 77%.

As to `COc1ccc(-c2noc(N3CCC(C(=O)Nc4ccc(OC)c(OC)c4)CC3)n2)cc1`, the survival is inactive: 90%.

On to `O=c1c2cc3c(cc2n(Cc2ccccc2)c(=O)n1Cc1nc(-c2ccccc2)no1)OCO3`, for which the survival is inactive: 87%.

Take `COc1ccc(NC(=O)N2CCN(S(=O)(=O)c3ccc4c(ccn4C)c3)CC2)cc1OC`: the survival is inactive: 131%.

With `COCCCNC(=O)C(C)n1c2ccccc2c2cnn(C)c(=O)c21` (centres undefined), the survival was inactive: 86%.

Consider `COc1ccc(NC(=O)CN2C(=O)CSc3ccc(S(=O)(=O)N(C)C)cc32)cc1Cl`, for which the survival is inactive: 74%.

Regarding `O=C(Nc1ccc(Cl)c(C(F)(F)F)c1)c1ccc2c(c1)CCN2S(=O)(=O)c1ccccc1`, the survival was active: 43%.

`CC(C)C(NS(=O)(=O)c1ccccc1)C(C)C`: the survival is inactive: 97%.

For the compound `Cc1ccc2occ(CC(=O)Nc3ccc(S(=O)(=O)N4CCCC(C)C4)cc3)c2c1` (centres undefined), the survival is inactive: 58%.

In the case of `COc1ccc(NC(=O)C2CCN(C(=O)N3CCOc4ccccc43)CC2)cc1`, the survival was inactive: 80%.

Take `Cc1ccccc1Cn1nnc2c(=O)[nH]c(C3CCN(C(=O)c4ccccc4Cl)CC3)nc21`: the survival was active: 17%.

With `COc1ccc(CNC(=O)CCCn2c(=O)c3cccn3c3ccc(F)cc32)cc1OC`, the survival is inactive: 53%.

Turning to `Cc1ccc(-n2ncc(C(=O)NCc3ccccn3)c2C2CCN(C(=O)OC(C)(C)C)CC2)c(C)c1`, the survival is inactive: 63%.

Take `CCOc1ccc(NC(=O)C2CCN(S(=O)(=O)c3c(C)noc3/C=C/c3c(C)cc(C)cc3C)CC2)cc1`: the survival was inactive: 83%.

In the case of `Cc1ccc(CNc2ncnc3c2c(-c2ccccc2)cn3-c2ccccc2)cc1`, the survival is inactive: 90%.

As to `CCCC(=O)Nc1cccc(-c2cn3cccnc3n2)c1`, the survival was inactive: 54%.

Regarding `Cc1cccc(C)c1NC(=O)CN(Cc1ccc(Br)cc1)S(=O)(=O)c1ccccc1`, the survival is inactive: 60%.

Regarding `CCCSc1nc(-c2ccc(OC)cc2)cc(-c2ccccc2OC)c1C#N`, the survival was inactive: 64%.

As to `COc1ccc(Cl)cc1Nc1cc(C)nc2nc(-c3ccccc3C)nn12`, the survival was inactive: 70%.

`CN(C)c1ccc(C(CNC(=O)c2cccc(C(F)(F)F)c2)N2CCCC2)cc1` (centres undefined): the survival was inactive: 102%.

As to `CCCn1c(=N)c(C(=O)NCc2cccnc2)cc2c(=O)n3ccccc3nc21`, the survival is inactive: 54%.

Consider `Cc1ccc(C)c(CNC(=O)c2ccc3c(c2)nc2n3CCC(C)C2)c1` (centres undefined), for which the survival is inactive: 91%.

Turning to `Cc1ccc(N(C)S(=O)(=O)c2nnc(NC(=O)CC(C)C)s2)cc1`, the survival is inactive: 90%.

As for `CCOC(=O)c1cc(OC(=O)c2ccc(OC)cc2)n(-c2ccccc2)n1`, the survival is active: 59%.

As for `COc1ccc(NC(=O)C(Cc2ccccc2)NS(=O)(=O)c2ccc3c(c2)CCN3C(C)=O)cc1` (centres undefined), the survival was inactive: 72%.

On to `CCOC(=O)Cc1ccc(NC(=O)Nc2cc3c(cc2N2CCCCC2)n(C)c(=O)n3C)cc1`, for which the survival was inactive: 76%.

As to `Cc1ccc(Cn2nnc3c(=O)[nH]c(C(=O)NC(C)(C)C)nc32)cc1`, the survival was inactive: 93%.

For the compound `c1ccc2c(c1)c1ccccc1n2CN1CCOCC1`, the survival is inactive: 87%.

With `COc1ccc(OC)c(CCNC(=O)Cn2ccc3cc(S(=O)(=O)N4CCCCC4)ccc32)c1`, the survival was inactive: 94%.

For `COc1ccc(OC)c(-c2noc(N3CCN(c4cc(C)ccc4C)CC3)n2)c1`, the survival is inactive: 87%.

Take `CCN(CC)c1ccc(NC(=O)c2sc3ccccc3c2Cl)cc1`: the survival is active: -2%.

For `COc1cccc(CNC(=O)C2CCN(Cc3cc4ccccc4n3Cc3ccc(C)cc3)CC2)c1`, the survival is inactive: 83%.

As to `COc1ccc2oc(=O)c(C(=O)Nc3cccc(C(=O)O)c3)cc2c1`, the survival is active: 50%.

Take `COc1cc(-c2cc3n(C)c(C)c(CCC(=O)NCc4ccccc4)c(=O)n3n2)cc(OC)c1OC`: the survival was inactive: 92%.

Regarding `Cc1ccc(NC(=O)Cn2c(=O)ccc3cc(S(=O)(=O)N4CCC(C)CC4)ccc32)c(C)c1`, the survival was inactive: 69%.

On to `O=C(Nc1ccc(F)cc1F)c1ccc2c(c1)CCN2S(=O)(=O)c1ccc(Cl)cc1`, for which the survival was inactive: 72%.

Consider `COc1ccc(-n2cc(C(=O)Nc3cc(F)ccc3F)c3ccccc3c2=O)cc1`, for which the survival is inactive: 51%.

Turning to `CCCCOC(=O)c1ccc(NC(=O)CC2NCCNC2=O)cc1` (centres undefined), the survival is inactive: 98%.

For the compound `CCOc1ccc(CNC(=O)Cn2ccc3cc(S(=O)(=O)N4CCCCCC4)ccc32)cc1`, the survival is inactive: 128%.

`CC1=Nc2ccc(N)cc2C1(C)C`: the survival was inactive: 59%.

For the compound `O=C(NCc1ccco1)Nc1c[nH]c2ccc(F)cc2c1=O`, the survival was inactive: 99%.

Consider `COc1ccc(CNc2nc(-c3ccc(Cl)cc3)cc(C(F)(F)F)n2)cc1`, for which the survival was active: 29%.

With `Cc1cc(N2CCN(c3cccc(C)c3C)CC2)nc(-c2ccccc2)n1`, the survival was inactive: 90%.

On to `Cc1ccc2oc(-c3cccc(NC(=O)c4cccc5c(Cl)cccc45)c3)nc2c1`, for which the survival was active: 51%.

Take `CCCCn1c(CCCNC(=O)c2cccc(C)c2)nc2ccccc21`: the survival was inactive: 55%.

For `COCCNC(=O)Cn1nc(-c2ccc(C)cc2)c2ccccc2c1=O`, the survival is active: 39%.

With `Cc1cccc(NC(=O)c2ccc(CN3CC(=O)N4CCCCC4C3=O)cc2)c1C` (centres undefined), the survival was inactive: 72%.

For the compound `COc1cc(C2CC(=O)Nc3ccc4ccccc4c32)ccc1OC(=O)C(C)C` (centres undefined), the survival was inactive: 67%.

Consider `CCOc1ccc2c(c1)c(=O)c(C(=O)c1ccc(CC)cc1)cn2CC(=O)Nc1cccc(Cl)c1`, for which the survival was inactive: 119%.

On to `O=C(NCCc1ccccc1)c1ccc2nc(CCc3ccccc3)oc2c1`, for which the survival is active: 32%.

For the compound `Cc1cc(C)c(Cn2c(=O)n(CCC(=O)NCc3ccc4c(c3)OCO4)c(=O)c3ccccc32)c(C)c1`, the survival was inactive: 108%.

As to `CCOc1ccc(OCC)c(NC(=O)C2CCN(S(=O)(=O)c3ccc4c(c3)CC(C)N4C(C)=O)CC2)c1` (centres undefined), the survival is inactive: 117%.

For `C#CCn1c(O)c(N=NC(=O)c2ccncc2)c2cc(Br)ccc21`, the survival is inactive: 76%.

Turning to `Cc1ccc2occ(CC(=O)N(Cc3ccc(Cl)cc3)Cc3ccco3)c2c1`, the survival was inactive: 97%.

As to `Cc1ccc(N2C(=O)[C@@H]3CSC(c4ccc(Cl)cc4)N3C2=O)cc1` (some centres undefined), the survival was inactive: 69%.

For the compound `CCc1ccccc1NC(=O)COCc1cc(-c2ccco2)on1`, the survival is inactive: 55%.

As for `COC(=O)c1c(-c2ccc(Cl)cc2)noc1N1CCN(c2ccccc2OC)CC1`, the survival was inactive: 75%.

On to `COc1ccccc1S(=O)(=O)Cc1ccc(C(=O)N2CCN(c3cc(Cl)ccc3C)CC2)o1`, for which the survival is inactive: 64%.

Turning to `Cc1cccc2cc3c(nc12)SC(=NCc1ccco1)N(Cc1cccs1)C3`, the survival was inactive: 82%.

For the compound `CCc1ccc(C(=O)CC2(O)C(=O)N(Cc3ccc(C)cc3)c3ccccc32)cc1` (centres undefined), the survival was inactive: 57%.

In the case of `CC(C)c1nc2ccc(C(=O)NCc3ccccc3Br)cc2o1`, the survival was inactive: 67%.

With `COc1cccc(CNC(=O)c2ccc(-n3c(C)cc4c3CCCC4)cc2)c1`, the survival was inactive: 78%.

`Cc1noc(-c2ccccc2OCC(=O)Nc2ccccc2[N+](=O)[O-])n1`: the survival was active: 39%.

As to `CCOc1ccccc1N1CC(c2nc3ccccc3n2CCCOc2ccc(OC)cc2)CC1=O` (centres undefined), the survival is inactive: 78%.

On to `COc1ccc(CNC(=O)c2sc3nc[nH]c(=O)c3c2C)cc1`, for which the survival was inactive: 75%.

Take `CC(C)OCCCN1C(=O)c2[nH]nc(-c3ccccc3O)c2C1c1ccccc1F` (centres undefined): the survival is inactive: 46%.

Regarding `O=C(Nc1ccc(S(=O)(=O)c2ccc(NC(=O)c3ccco3)cc2)cc1)c1ccco1`, the survival was inactive: 86%.

For `O=C(NCC1CCN(Cc2cccc(Cl)c2)CC1)Nc1ccc(F)c(Cl)c1`, the survival is inactive: 55%.

Turning to `Cc1cc(O)c(C(c2ccccc2)N2CCN(c3ccc(F)cc3)CC2)c(=O)n1Cc1ccco1` (centres undefined), the survival was inactive: 67%.

`O=C(c1ccco1)N(Cc1cccs1)c1ccc(F)cc1`: the survival is inactive: 111%.
